Test results reported in patent US10385089B2, “Thionucleoside derivative or salt thereof, and pharmaceutical composition” (FUJIFILM Corporation, priority 2014, dated 2019).

Each molecule was assayed on gemcitabine-resistant strain of pancreatic cancer cell line Capan-1 (ATCC Number: HTB-79) (assay: Gemcitabine-resistant cell growth inhibition test (CellTiter Glo, total cellular ATP)). Settings: Homo sapiens, CAPAN-1, 72 h, read-out: Growth inhibitory activity IC50 (μmol/L).

Row | Structure (SMILES) | IC50 [µmol/L]
1 | C[C@H](NP(=O)(OC[C@H]1O[C@@H](n2ccc(N)nc2=O)C(F)(F)[C@@H]1O)Oc1ccccc1)C(=O)OCc1ccccc1 (mixture of isomers) [Comparative Example 1, (2S)-benzyl 2-(((RS)-(((2R,3R,5R)-5-(4-amino-2-oxopyrimidin-1(2H)-yl)-4,4-difluoro-3-hydroxytetrahydrofuran-2-yl)methoxy)(phenoxy)phosphoryl)amino)propanoate, reference compound] | > 15
2 | CC(C)OC(=O)OCOP(=O)(N[C@@H](C)C(=O)OCc1ccccc1)OC[C@H]1S[C@@H](n2ccc(N)nc2=O)[C@@H](F)[C@@H]1O (mixture of isomers) [Example 7-1, (2S)-benzyl 2-(((RS)-(((2R,3S,4S,5R)-5-(4-amino-2-oxopyrimidin-1(2H)-yl)-4-fluoro-3-hydroxytetrahydrothiophen-2-yl)methoxy)(((isopropoxycarbonyl)oxy)methoxy)phosphoryl)amino)propanoate] | 5 to 15
3 | CC(C)OC(=O)[C@H](C)NP(=O)(OCOC(=O)C(C)(C)C)OC[C@H]1S[C@@H](n2ccc(N)nc2=O)[C@@H](F)[C@@H]1O (mixture of isomers) [Example 7-3-1, (((RS)-(((2R,3S,4S,5R)-5-(4-amino-2-oxopyrimidin-1(2H)-yl)-4-fluoro-3-hydroxytetrahydrothiophen-2-yl)methoxy)(((S)-1-isopropoxy-1-oxopropan-2-yl)amino)phosphoryl)oxy)methyl pivalate] | 5 to 15
4 | C[C@H](NP(=O)(OCOC(=O)C(C)(C)C)OC[C@H]1S[C@@H](n2ccc(N)nc2=O)[C@@H](F)[C@@H]1O)C(=O)OCc1ccccc1 (mixture of isomers) [Example 7-3-2, (((RS)-(((2R,3S,4S,5R)-5-(4-amino-2-oxopyrimidin-1(2H)-yl)-4-fluoro-3-hydroxytetrahydrothiophen-2-yl)methoxy)(((S)-1-(benzyloxy)-1-oxopropan-2-yl)amino)phosphoryl)oxy)methyl pivalate] | 5 to 15
5 | C[C@H](NP(=O)(OCCSC(=O)C(C)(C)C)OC[C@H]1S[C@@H](n2ccc(N)nc2=O)[C@@H](F)[C@@H]1O)C(=O)OCc1ccccc1 (mixture of isomers) [Example 7-3-3, (2S)-benzyl 2-(((RS)-(((2R,3S,4S,5R)-5-(4-amino-2-oxopyrimidin-1(2H)-yl)-4-fluoro-3-hydroxytetrahydro-thiophen-2-yl)methoxy)(2-(pivaloylthio)ethoxy)phosphoryl)amino)propanoate] | 5 to 15
6 | CC(C)(C)C(=O)OCOP(=O)(OCOC(=O)C(C)(C)C)OC[C@H]1O[C@@H](n2ccc(N)nc2=O)C(F)(F)C1O (stereo in doubt) [Comparative Example 4, ((2R,3S,5R)-5-(4-amino-2-oxopyrimidin-1(2H)-yl)-4,4-difluoro-3-hydroxytetrahydrofuran-2-yl)methyl bis(pivaloyloxymethyl) phosphate, reference compound] | > 15
7 | CC(C)(C)C(=O)SCCOP(=O)(OCCSC(=O)C(C)(C)C)OC[C@H]1S[C@@H](n2ccc(N)nc2=O)[C@@H](F)[C@@H]1O [Example 8, ((2R,3S,4S,5R)-5-(4-amino-2-oxopyrimidin-1(2H)-yl)-4-fluoro-3-hydroxytetrahydrothiophen-2-yl)methyl bis(S-pivaloyl-2-mercaptoethan-1-yl) phosphate] | < 2
8 | CC(C)C(=O)SCCOP(=O)(OCCSC(=O)C(C)C)OC[C@H]1S[C@@H](n2ccc(N)nc2=O)[C@@H](F)[C@@H]1O [Example 9-1, ((2R,3S,4S,5R)-5-(4-amino-2-oxopyrimidin-1(2H)-yl)-4-fluoro-3-hydroxytetrahydrothiophen-2-yl)methyl bis(S-isobutyryl-2-mercaptoethan-1-yl) phosphate] | 2 to 5
9 | CC(C)OC(=O)OCOP(=O)(OCOC(=O)OC(C)C)OC[C@H]1S[C@@H](n2ccc(N)nc2=O)[C@@H](F)[C@@H]1O [Example 11-1-2, ((2R,3S,4S,5R)-5-(4-amino-2-oxopyrimidin-1(2H)-yl)-4-fluoro-3-hydroxytetrahydrothiophen-2-yl)methyl bis(isopropyloxycarbonyloxymethyl) phosphate] | 5 to 15

Continued, values first:

Row | IC50 [µmol/L] | Structure (SMILES)
10 | 2 to 5 | CC(C)(C)C(=O)OCOP(=O)(OCCSC(=O)C(C)(C)C)OC[C@H]1S[C@@H](n2ccc(N)nc2=O)[C@@H](F)[C@@H]1O (mixture of isomers) [Example 10-1, (((RS)-(((2R,3S,4S,5R)-5-(4-amino-2-oxopyrimidin-1(2H)-yl)-4-fluoro-3-hydroxytetrahydrothiophen-2-yl)methoxy)(2-(pivaloylthio)ethoxy)phosphoryl)oxy)methyl pivalate]
11 | 2 to 5 | CC(C)OC(=O)OCOP(=O)(OCCSC(=O)C(C)(C)C)OC[C@H]1S[C@@H](n2ccc(N)nc2=O)[C@@H](F)[C@@H]1O (mixture of isomers) [Example 10-2, S-(2-(((RS)-(((2R,3S,4S,5R)-5-(4-amino-2-oxopyrimidin-1(2H)-yl)-4-fluoro-3-hydroxytetrahydrothiophen-2-yl)methoxy)(((isopropoxycarbonyl)oxy)methoxy)phosphoryl)oxy)ethyl) 2,2-dimethylpropanethioate]
12 | 2 to 5 | C[C@H](NP1(=O)OC[C@H]2S[C@@H](n3ccc(N)nc3=O)[C@@H](F)[C@@H]2O1)C(=O)OCc1ccccc1 (mixture of isomers) [Example 29-1, (2S)-benzyl 2-(((2RS,4aR,6R,7S,7aS)-6-(4-amino-2-oxopyrimidin-1(2H)-yl)-7-fluoro-2-oxidotetrahydro-4H-thieno[3,2-d][1,3,2]dioxaphosphinin-2-yl)amino)propanoate]
13 | 2 to 5 | CC(C)OC(=O)[C@H](C)NP1(=O)OC[C@H]2S[C@@H](n3ccc(N)nc3=O)[C@@H](F)[C@@H]2O1 (mixture of isomers) [Example 29-2, (2S)-isopropyl 2-(((2RS,4aR,6R,7S,7aS)-6-(4-amino-2-oxopyrimidin-1(2H)-yl)-7-fluoro-2-oxidotetrahydro-4H-thieno[3,2-d][1,3,2]dioxaphosphinin-2-yl)amino)propanoate]
14 | 5 to 15 | Nc1ccn([C@@H]2S[C@H](COP(=O)(OCCSSCCO)OCCSSCCO)[C@@H](O)[C@@H]2F)c(=O)n1 [Example 12-1, ((2R,3S,4S,5R)-5-(4-amino-2-oxopyrimidin-1(2H)-yl)-4-fluoro-3-hydroxytetrahydrothiophen-2-yl)methyl bis(2-((2-hydroxyethyl)disulfanyl)ethyl) phosphate]
15 | 2 to 5 | CC(C)(C)C(=O)OCCSSCCOP(=O)(OCCSSCCOC(=O)C(C)(C)C)OC[C@H]1S[C@@H](n2ccc(N)nc2=O)[C@@H](F)[C@@H]1O [Example 13-1, ((2R,3S,4S,5R)-5-(4-amino-2-oxopyrimidin-1(2H)-yl)-4-fluoro-3-hydroxytetrahydrothiophen-2-yl)methyl bis(2-((2-pivaloyloxyethyl)disulfanyl)ethyl) phosphate]
